According to PubChem BioAssay AID720708 (National Center for Advancing Translational Sciences (NCATS), 2013):
The campaign covered roughly 360,000 compounds. About 660 (0.18%) were called active. Inconclusive means that the source gave no clear call. Such entries were picked first, then a sample of the others. Calls come from the whole dose curve; as a rule, active = well fitted inhibition curve with a large enough effect; inconclusive = small, poorly fitted or top-dose-only effect; inactive = no such curve, though single readings can be large or run the other way. Potencies of inconclusive entries are left out as doubtful fits.

What follows are compounds tested against Rap guanine nucleotide exchange factor 4 (Homo sapiens) (UniProt Q8WZA2) (assay: qHTS for Antagonist of cAMP-regulated guanine nucleotide exchange factor 2 (EPAC2): primary screen). Conditions: EPAC2 GEF exchange of Rap1B-BODIPY-GDP, fluorescence; series mostly up to 114 µM.
Note: nearly all actives have a fitted effect of over 45% in size.
Potency is the fitted concentration of half-maximal effect; tags give direction and shape of the fitted curve.

Sequence of UniProt Q8WZA2 (Q8WZA2 whole entry, looked up): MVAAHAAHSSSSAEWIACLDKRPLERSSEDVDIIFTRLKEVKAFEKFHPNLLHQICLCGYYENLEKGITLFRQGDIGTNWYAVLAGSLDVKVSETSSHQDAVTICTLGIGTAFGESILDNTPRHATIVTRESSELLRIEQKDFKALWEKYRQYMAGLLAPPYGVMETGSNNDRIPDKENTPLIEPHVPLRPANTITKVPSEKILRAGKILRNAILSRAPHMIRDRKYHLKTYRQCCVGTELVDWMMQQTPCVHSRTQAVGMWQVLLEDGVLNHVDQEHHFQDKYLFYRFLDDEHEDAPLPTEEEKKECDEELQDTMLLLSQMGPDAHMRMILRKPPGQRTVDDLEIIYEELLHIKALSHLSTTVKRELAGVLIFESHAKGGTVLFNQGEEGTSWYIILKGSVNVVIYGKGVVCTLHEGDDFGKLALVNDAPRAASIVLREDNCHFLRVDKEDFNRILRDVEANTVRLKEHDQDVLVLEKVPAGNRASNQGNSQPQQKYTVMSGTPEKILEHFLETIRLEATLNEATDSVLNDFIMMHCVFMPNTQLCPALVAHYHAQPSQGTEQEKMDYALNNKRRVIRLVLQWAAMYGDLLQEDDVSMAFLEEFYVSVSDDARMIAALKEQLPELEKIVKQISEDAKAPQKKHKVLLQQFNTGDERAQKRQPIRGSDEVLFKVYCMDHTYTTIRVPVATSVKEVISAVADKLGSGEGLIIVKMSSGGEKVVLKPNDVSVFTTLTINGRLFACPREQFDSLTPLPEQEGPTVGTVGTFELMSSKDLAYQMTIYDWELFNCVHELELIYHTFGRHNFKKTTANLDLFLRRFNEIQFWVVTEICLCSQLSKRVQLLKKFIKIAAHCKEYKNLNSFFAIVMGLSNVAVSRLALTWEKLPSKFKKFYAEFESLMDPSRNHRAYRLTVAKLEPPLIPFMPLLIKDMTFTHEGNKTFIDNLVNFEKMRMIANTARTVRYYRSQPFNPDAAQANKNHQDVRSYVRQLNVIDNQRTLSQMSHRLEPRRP

Compound | Potency
C=CCSc1nc2ccccc2c(=O)n1C1CCOC(C)(C)C1 (stereo not given) | inconclusive [inhibitor, full curve]
CCc1c(C)sc(NC(=O)C2CCCCC2C(=O)O)c1C(N)=O (stereo not given) | inactive
COc1ccc(C2=CCCCCC2)c(OC)c1OC | inconclusive [inhibitor, partial curve]
CCCc1c(-c2cccc(Cl)c2)ncn1CCc1ccccc1OC | inconclusive [inhibitor, partial curve]
CC(C)(Oc1ccc(Cl)cc1)C(=O)OCn1nnc2ccccc2c1=O | inconclusive [inhibitor, full curve]
CCOC(=O)CC1(c2ccc(OC)c(OC)c2)C(=O)c2ccccc2C1=O | inconclusive [inhibitor, partial curve]
COc1ccc(-c2cc(C)no2)cc1S(=O)(=O)N(C)c1ccc(C)cc1 | inconclusive [inhibitor, partial curve]
Fc1ccc(Nc2ccnc(C(F)(F)F)c2)cc1 | inconclusive [inhibitor, full curve, poor fit]
CC1(c2ccc(Cl)cc2)NC(=O)CS1 (stereo not given) | inconclusive [inhibitor, single point]
O=C(CCc1nc(-c2ccc(F)cc2)no1)NCc1ccccc1CN1CCOCC1 | inactive
Clc1cccc(-c2nc3ccc(Br)cn3c2Cc2ccccc2)c1 | inconclusive [inhibitor, full curve, poor fit]
O=C(CCC(=O)c1ccc(Oc2ccccc2)cc1)Nc1ccc(C(=O)O)cc1 | inconclusive [inhibitor, partial curve]
Cc1ccccc1-c1nnc(SCC(=O)Nc2cccnc2Cl)o1 | inconclusive [inhibitor, single point]
COc1cc(NCc2ccccc2O)c2ncccc2c1 | inconclusive [inhibitor, partial curve]
COC(=O)CNC(=O)CSc1ccccn1 | inconclusive [inhibitor, full curve, poor fit]
COc1cc(F)ccc1-c1csc(C(C)(NC(C)=O)c2ccccc2)n1 (stereo not given) | inactive
O=C(NN=C1CCCC1)c1ccn[nH]1 | inactive
Cc1cc(NS(=O)(=O)c2ccc(Nc3nc(-c4sc(N)nc4C)cs3)cc2)no1 | active: 31.6 µM
CN(N=Cc1cccc2cccnc12)c1ccc([N+](=O)[O-])cc1[N+](=O)[O-] | inconclusive [inhibitor, full curve]
COc1cc(-c2nnc(COC(=O)c3ccc(C)o3)o2)cc(OC)c1OC | inactive
